The chains are these.
B1: LINE1-mini (parent)
chain: GGCAGAGCUCAACACAGCGUGGCAAAGUGGCUGUGGCUAGACUGCC

The source gives no read counts; variants with many changes may rest on few reads.

Variants of B1 are the subject of the data set. Nature of the data set: self-cleavage, relative activity (ratio to wild type); higher = more cleavage; in vitro, sequencing; the parent is a self-cleaving ribozyme.
Take G5U U38C G44A: the self-cleavage worked out at 0.03.

In the case of G5U G27U G36A C42A U43A, the self-cleavage is 0.16.

Consider G5U G29U C45A, for which the self-cleavage was 0.39.

Consider A6C A14C G29U U32C U38A, for which the self-cleavage was determined as 0.09.

As for G5U U20A G36C, the self-cleavage is 0.73.

Take A6C C10A A11U U20C G30U G35A: the self-cleavage was 0.04.

On to A6C A12G U38C C45A, for which the self-cleavage was determined as 0.08.

G5U G19U A24G C37A: the self-cleavage worked out at 0.11.

For the variant G5U G29U U32A G35U A39U, the self-cleavage was determined as 0.03.

G5U G22C U32A U38G: the self-cleavage was found to be 0.

On to A6C A11U C13A G35U, for which the self-cleavage was 0.1.

Consider G5U U9A U34A, for which the self-cleavage was found to be 0.21.

Take A6C C8U G19C G33C G35U A39C: the self-cleavage amounted to 0.18.

Turning to G5U G30C G40C C46U, the self-cleavage is 0.05.

Consider A6C C10A U20G, for which the self-cleavage amounted to 0.

Take G5U G21U C23A G44A C45A: the self-cleavage was found to be 0.02.

As for G5U G29A G33U, the self-cleavage came out at 0.13.

Take G5U G29A G33A: the self-cleavage is 0.03.

For the variant G5U U34A U38A C42A, the self-cleavage came to 0.05.

As for A6C C10A G17A G30A, the self-cleavage was determined as 0.04.

Turning to A6C A14C G17U C37U, the self-cleavage came to 0.05.

As to G5U U9A C10U A16C A26C C31U, the self-cleavage was 0.02.

On to G5U G21U G40U, for which the self-cleavage is 0.26.

Regarding G5U U9G C23A A25U, the self-cleavage came to 0.03.

Turning to A6C A26C G30C G33C C46U, the self-cleavage was 0.05.

Take G5U G17U G30U: the self-cleavage was found to be 0.05.

Regarding A6C A16G C45G, the self-cleavage was found to be 0.03.

Consider G5U G22A G35A C46A, for which the self-cleavage is 0.05.

As for A6C C10A G19C G22A A24G U28A C42U, the self-cleavage worked out at 0.

As to G5U G40A C45G, the self-cleavage was 0.03.

With G5U G40A C45U, the self-cleavage is 0.02.

Regarding G5U G17A C18G, the self-cleavage is 0.02.

Regarding A6C C8A G19A G22U A26U C45G, the self-cleavage was 0.48.

Turning to G5U G7U A11G A25C, the self-cleavage was 0.01.

Regarding G5U G22C G36U, the self-cleavage was 0.11.

With G5U U34C G35U C42G, the self-cleavage turned out to be 0.

With G5U G17A U28G C37A C42U, the self-cleavage is 0.09.

In the case of G5U G27U G33U G44A, the self-cleavage was 0.07.

For G5U U20A U43C, the self-cleavage was 0.02.

With G5U G22U A24C, the self-cleavage is 0.

G5U G7C U9G A39C A41C: the self-cleavage came out at 0.03.

Take G5U U9C C10A G35U: the self-cleavage turned out to be 0.05.

As to G5U G33A U34G, the self-cleavage was 0.03.

As for G5U G27C U32G U34G U43A G44A C46A, the self-cleavage was found to be 0.

For the variant A6C A16G C31U, the self-cleavage turned out to be 0.06.

For the variant G5U G27U U43G G44C, the self-cleavage came out at 0.

G5U U9G G33C: the self-cleavage was 0.03.

In the case of A6C A16G G36A, the self-cleavage turned out to be 1.09.

G5U U9G U43A G44C: the self-cleavage was 0.03.

Turning to G5U U20A G33C C46U, the self-cleavage is 0.04.

On to G5U G33U G40A, for which the self-cleavage was found to be 0.01.

With A6C A11G C18U G19U, the self-cleavage is 0.02.

On to A6C C8G A16G G35C, for which the self-cleavage was determined as 0.

On to A6C A25U A41G, for which the self-cleavage amounted to 0.81.

For the variant A6C A24U U38A, the self-cleavage amounted to 0.4.

Consider G5U G40C C42A C45G, for which the self-cleavage is 0.01.

As for A6C C8G A14G C46A, the self-cleavage is 0.02.

As to A6C C10A A12U U34A, the self-cleavage is 0.02.

In the case of A6C A12U C15A, the self-cleavage was found to be 0.02.

A6C A11U U34G: the self-cleavage turned out to be 0.04.

G5U U28C G30C: the self-cleavage worked out at 0.

Turning to A6C A12G C13A G44U, the self-cleavage stood at 0.

As for G5U G17A C42A, the self-cleavage came to 0.03.

With A6C A12C G40A, the self-cleavage came out at 0.03.

For the variant G5U G7U A14C G30U, the self-cleavage worked out at 0.21.

As to G5U G19C G27U G40C A41U, the self-cleavage is 0.01.

Turning to G5U G17A G36U C45G, the self-cleavage amounted to 0.02.

In the case of G5U G30U C42A, the self-cleavage was 0.05.

For A6C C10A A14U A24C C46A, the self-cleavage was determined as 0.04.

As to G5U U9C C37U, the self-cleavage came out at 0.03.

For the variant A6C A12U C13G, the self-cleavage is 0.13.

On to G5U G19C U34G U43C, for which the self-cleavage was determined as 0.01.

G5U G21U G22U G36C: the self-cleavage is 0.07.

Regarding A6C C8U C23U, the self-cleavage was 0.11.

For the variant A6C A26U G27A U38A, the self-cleavage is 0.04.

Take G5U G36A G44C: the self-cleavage was found to be 0.04.

For G5U G7U C46U, the self-cleavage came to 0.2.

As to G5U G7A G19A G40A, the self-cleavage turned out to be 0.28.

Turning to G5U U9G G35U, the self-cleavage came out at 0.07.

Regarding G5U U20A U32G C46U, the self-cleavage amounted to 0.03.

A6C A26C U38A G40A: the self-cleavage stood at 0.01.

Take A6C A39G G44C C45A: the self-cleavage was 0.06.

A6C A14C A24U G44C: the self-cleavage is 0.02.

In the case of A6C C8A G19U G30U C37A, the self-cleavage stood at 0.01.

For G5U G30U U32A A41G, the self-cleavage worked out at 0.01.

For the variant G5U G27U G30U, the self-cleavage is 0.19.

As to A6C A26U A39U C42G, the self-cleavage was found to be 0.09.

As to A6C A26C U28A C46A, the self-cleavage is 0.11.

Take G5U U9C G17A: the self-cleavage was 0.01.

On to G5U G19U G36C, for which the self-cleavage worked out at 0.01.

As for A6C A16U A25U A26G C37G, the self-cleavage was determined as 0.01.

With A6C A16U G21A G33C C42U, the self-cleavage is 0.14.

With G5U U20C A24U U28C, the self-cleavage came out at 0.13.

Regarding G5U G17A C18U A26G, the self-cleavage was found to be 0.05.

On to A6C C10G C31U, for which the self-cleavage came to 0.01.

On to G5U U9A G29C, for which the self-cleavage was 0.06.

With A6C A11G G44C C45A, the self-cleavage worked out at 0.01.

On to A6C A24C C31G G33C A41U C45U, for which the self-cleavage came to 0.01.

G5U U20G G35U: the self-cleavage worked out at 0.07.

On to A6C A24U C37A C42U, for which the self-cleavage was determined as 0.24.

Take G5U G7U C15U C46U: the self-cleavage worked out at 0.1.

As for A6C A14C G22U, the self-cleavage is 0.54.

Regarding G5U U20G A25U G36U, the self-cleavage is 0.01.

With G5U G17U G27U G30C, the self-cleavage turned out to be 0.02.

For the variant G5U G7A G22C C45U, the self-cleavage is 0.2.

Turning to G5U G40A C42U, the self-cleavage is 0.02.

With G5U G21U G27A A41C U43C, the self-cleavage worked out at 0.02.

Turning to G5U U9C G21C G36U, the self-cleavage came out at 0.02.

For G5U G17A G30A G33U U38G G44U C45G, the self-cleavage was 0.01.

With A6C A16U G36C, the self-cleavage is 0.03.

Consider G5U G35C C46U, for which the self-cleavage was 0.14.

With A6C A12G U38G, the self-cleavage amounted to 0.14.

Turning to G5U U9A G17C G29U G30C U34C, the self-cleavage is 0.07.

Consider A6C C10G C23A A39U C45G, for which the self-cleavage is 0.01.

With A6C C8U C13G, the self-cleavage stood at 0.09.

Regarding A6C C10A C13G C18G, the self-cleavage amounted to 0.02.

Turning to A6C C10A A11C, the self-cleavage is 0.05.

For A6C C10A G17A G19U, the self-cleavage turned out to be 0.02.

As for G5U G35C G40C, the self-cleavage is 0.01.

With A6C C10G C23A C31U A39G C46A, the self-cleavage amounted to 0.01.

Take A6C C10A G17A: the self-cleavage came out at 0.03.

G5U U28A U32A C45A: the self-cleavage was found to be 0.03.

As to G5U U9G A11U C18A G29U, the self-cleavage was 0.02.

As for G5U U9A G21C, the self-cleavage came out at 0.02.

For G5U U20C G22C, the self-cleavage is 0.04.

For the variant G5U G7U C18A A26G U32C A39U C46G, the self-cleavage amounted to 0.01.

For the variant G5U G21U G33C G36U, the self-cleavage was found to be 0.06.

For G5U U20A G44A, the self-cleavage is 0.07.

Turning to A6C A14G G36U, the self-cleavage amounted to 0.22.

For the variant A6C A12U C18U A24C U28A U32G U43C, the self-cleavage turned out to be 0.01.

For G5U U32C U34C, the self-cleavage was 0.07.

For G5U U34G A41U, the self-cleavage came out at 0.02.

In the case of G5U G36A A41G, the self-cleavage came to 0.14.

A6C A14U A24U: the self-cleavage came to 0.14.

For G5U G21U U34G, the self-cleavage is 0.04.

On to G5U G21U G33A, for which the self-cleavage came to 0.05.

For G5U U9G A26U U32A, the self-cleavage is 0.19.

As to G5U G21U U34G G36U, the self-cleavage amounted to 0.08.

Regarding A6C A11U G19A, the self-cleavage is 0.05.

As to G5U G30A C45U, the self-cleavage was found to be 0.05.

Take G5U G21U U28G G30A C31A: the self-cleavage was 0.02.

With A6C A26G G29C U34C G40A, the self-cleavage was determined as 0.01.

As for A6C A11C G21A, the self-cleavage was 0.03.

Consider G5U U9C A12G, for which the self-cleavage worked out at 0.02.

With G5U G7C C18U U32G A39G, the self-cleavage was 0.

On to G5U G29U G36C, for which the self-cleavage came out at 0.1.

As to G5U G17A G27U U38G, the self-cleavage is 0.01.

As for A6C C10A C46U, the self-cleavage worked out at 0.09.

Take G5U G22U U28A: the self-cleavage is 0.04.

In the case of G5U G19U C42A, the self-cleavage worked out at 0.37.

For G5U U20C U43A, the self-cleavage came to 0.02.

In the case of G5U G36C A41G, the self-cleavage is 0.07.

On to G5U G7U U34G, for which the self-cleavage was determined as 0.13.

A6C A12C C15G C18G: the self-cleavage was determined as 0.02.

On to A6C C8A C10G A14U C15A C31U, for which the self-cleavage amounted to 0.01.

Consider G5U G29U G35U C45A, for which the self-cleavage was 0.06.

For G5U U9C G29U C42G, the self-cleavage came to 0.

G5U U9G G27C: the self-cleavage worked out at 0.05.

For G5U G21C G35A, the self-cleavage turned out to be 0.15.

In the case of A6C A11C A12C G21C G30U, the self-cleavage stood at 0.03.

Turning to A6C C8A U20C G27A U38A G40U U43G, the self-cleavage came out at 0.02.

As for A6C A16U A41C, the self-cleavage turned out to be 0.09.

As to G5U U9A G21C C46A, the self-cleavage turned out to be 0.09.

On to G5U U20C A39U, for which the self-cleavage was found to be 0.03.

In the case of G5U G17U U20A, the self-cleavage was determined as 0.01.

Regarding G5U G35U G40U, the self-cleavage was found to be 0.

With A6C A14U C18G G33C C42A, the self-cleavage worked out at 0.02.
